# From PubChem BioAssay AID686978 (National Center for Advancing Translational Sciences (NCATS), 2013)
# Out of some 420,000 compounds screened, about 64,000 (15%) were called active. Inconclusive means that the source gave no clear call. Such entries were picked first, then a sample of the others. The call rests on the fitted dose curve; in most records, active means well fitted inhibition curve with a large enough effect; inconclusive means small, poorly fitted or top-dose-only effect; inactive means flat fitted curve, though single readings scatter. No potency is given beside an inconclusive call; the fits are too rough.
# Test: qHTS for Inhibitors of human tyrosyl-DNA phosphodiesterase 1 (TDP1): qHTS in cells in absence of CPT; further: nearly all actives have a fitted effect of over 55% in size
# Details: DT40 Tdp1-/- hTDP1 cells, no CPT, ATP luminescence, 48 h; series mostly up to 46.2 µM
# Method in brief: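 Growth kinetics read by CellTiter-Glo luminescence after ≥48 hr at 37 °C. Cells: DT40 Tdp1-/- stably carrying human TDP1, 400 per well, compound exposure in the absence of CPT (DMSO vehicle).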
# Potency means the concentration at half of the fitted maximal effect; tags describe the fitted curve by direction and shape.
row,SMILES,Potency
1,COc1ccc(N2CCN(C(=O)CNC(=O)c3ccc(C(C)(C)C)cc3)CC2)cc1,"inconclusive [inhibitor, single point]"
2,COc1ccc(NC(=O)N2CCCC3(CCN(C(=O)c4ccco4)CC3)C2)cc1,inactive
3,Cc1ccccc1NS(=O)(=O)c1ccc(C(=O)NCC2(N3CCOCC3)CCCCC2)cc1,"inconclusive [inhibitor, single point]"
4,Cc1ccccc1C(=O)NCCc1sc(-c2ccc(Cl)cc2)nc1C,"inconclusive [inhibitor, partial curve]"
5,Cc1c(C)c2c(OCC(=O)N[C@@H](Cc3ccccc3)C(=O)O)cc3c(c2oc1=O)CCC(C)(C)O3,inactive
6,C=CCn1c(SCC(=O)c2[nH]c(C)c(C(=O)OCC)c2C)nc2scc(-c3ccc(OC)cc3)c2c1=O,active: 14.6 µM
7,Cc1csc2ncc(C(=O)Nc3ccccc3F)c(=O)n12,"inconclusive [inhibitor, partial curve]"
8,CC(C)n1c(CN2CCN(C(=O)c3ccco3)CC2)nc2c1c(=O)n(C)c(=O)n2C,"inconclusive [inhibitor, partial curve, poor fit]"
9,Cc1noc(C)c1CSc1nc2ccccc2nc1NS(=O)(=O)c1ccc(Cl)cc1,active: 11.6 µM
10,Cc1ccccc1NC(=O)CCN1C(=O)c2ccccc2Sc2ncccc21,"inconclusive [inhibitor, single point]"
11,CCN(CC(=O)NCc1ccc(Cl)cc1)C(=O)c1cnc(Cl)c(Cl)c1,inactive
12,COc1ccc(S(=O)(=O)N2CCC(C(=O)NCCc3ccc(OC)c(OC)c3)CC2)cc1,"inconclusive [inhibitor, partial curve]"
13,CCCCn1c(/N=C/c2c[nH]c3ccccc23)nc2ccccc21,active: 20.6 µM
14,Cc1ccc(C)c(NC(=O)CSc2nc3c(c(=O)n2C)SC(C)C3)c1 (centres undefined),"inconclusive [inhibitor, partial curve]"
15,O=C(N/N=C/c1coc2ccccc2c1=O)c1cccc([N+](=O)[O-])c1,inactive
16,CC(C)N(C(=O)Cn1cc(SCC(N)=O)c2ccccc21)C(C)C,inactive
17,Cc1ccc(-n2c(SCC(=O)N3c4ccccc4Sc4ccccc43)nnc2-c2ccncc2)cc1,"inconclusive [inhibitor, single point]"
18,O=C(Nc1cccc(Cl)c1)Nc1nnc(CC2=CCCCC2)s1,active: 18.4 µM
19,COc1ccc(-c2nc(SCC(=O)NC3CCCC3)c(-c3ccc(C)cc3)[nH]2)cc1OC,"inconclusive [inhibitor, partial curve]"
20,CCOc1ccc(NC(=O)C(=O)NCC(c2cccnc2)N2CCc3ccccc32)cc1 (centres undefined),active: 3.66 µM
21,CC(C)Cc1cc(C(=O)N2N=C(C(F)F)CC2(O)C(F)F)c2ccccc2n1 (centres undefined),"inconclusive [inhibitor, single point]"
22,CCCn1c(=O)c2c(nc3n2CCCN3CCc2ccc(OC)c(OC)c2)n(C)c1=O,"inconclusive [inhibitor, single point]"

row,SMILES,Potency
1,CCOC(=O)C1CCCN(S(=O)(=O)c2ccc3c(c2)oc(=O)n3C)C1 (centres undefined),"inconclusive [inhibitor, single point]"
2,CCOc1ccc2nc(NC(=O)CSc3nnc(-c4ccncc4)n3CC3CCCO3)sc2c1 (centres undefined),inactive
3,COc1ccc(N(Cc2cccs2)C(=O)Nc2cccc(Cl)c2)cc1,"inconclusive [inhibitor, single point]"
4,CN(C)C(=O)CCc1ccc2c3c([nH]c2c1)[C@]1(C)[C@@H](C(=O)N2CCCCC2)C[C@H](CC(=O)NC(C)(C)C)C(=O)N1CC3,"inconclusive [inhibitor, single point]"
5,Cc1cccc(NC(=O)c2sc3ncn(CC(=O)N4CCN(c5ccccn5)CC4)c(=O)c3c2C)c1,"inconclusive [inhibitor, single point]"
6,O=C(Nc1ccc(Cl)cn1)c1ccc(Oc2ccccc2)cc1,"inconclusive [inhibitor, single point]"
7,O=C(COC(=O)Cn1nnc2ccccc21)Nc1ccccc1Br,"inconclusive [inhibitor, single point]"
8,C/C(=N\Nc1ncc(Cl)cc1Cl)c1ccccn1,active: 0.0259 µM
9,CCN(C(=O)Cn1nc(Cc2cccnc2)c2ccccc2c1=O)c1cc(C)ccc1C,active: 23.1 µM
10,O=C(CSc1nc(N2CCOCC2)nc(N2CCOCC2)n1)Nc1ccc([N+](=O)[O-])cc1,"inconclusive [inhibitor, single point]"
11,COc1ccc(S(=O)(=O)N(C)C)cc1NC(=O)CN1C(=O)NC2(CCCC2)C1=O,inactive
12,CCc1ccccc1NC(=S)N1CCN(c2ccccc2F)CC1,"inconclusive [inhibitor, single point]"
13,CCN(CCNC(=O)C1CCCN(c2ncnc3c2nc2n3CCCCC2)C1)Cc1ccccc1 (centres undefined),active: 25.9 µM
14,Cc1ccc(-n2c(=O)c3sccc3n(Cc3cc(=O)n4ccccc4n3)c2=O)cc1,inactive
15,COc1cccc(Cn2c(=O)c(-c3ccc(Cl)cc3)nc3cnc(N(C)C)nc32)c1,inactive
16,O=C(CCc1ccccc1)Nc1ccccc1C(=O)N1CCOCC1,inactive
17,COc1ccc(-c2csc3nc(-c4cccnc4)nc(Cl)c23)cc1OC,"inconclusive [inhibitor, single point]"
18,Cc1cccc(-c2cc(NC(=O)COc3ccccc3F)n(-c3ccccc3)n2)c1,"inconclusive [inhibitor, partial curve]"
19,COc1ccc(NC(=O)CCNS(=O)(=O)c2cc(Br)cnc2N)c(OC)c1,inactive
20,Cc1c(OCC(=O)NCCCN2CCOCC2)ccc2c1oc(=O)c1ccccc12,"inconclusive [inhibitor, single point]"
21,O=C1C(c2ccc(C(F)(F)F)cc2)=C(Nc2ccc(Cl)cc2)c2ccccc21,active: 11.6 µM
22,COc1ccccc1NC1=C(NC(C)=O)C(=O)c2ccccc2C1=O,"inconclusive [inhibitor, single point]"
